The text below walks through data of PubChem BioAssay (NCI).

The structures appear in SMILES notation. Several values for one entry are separate records, joined by “and”; a condition that tells them apart may be missing. Equal entries are not always repeated.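 Results reflect a 48-hour exposure of cells in 96-well plates to compound at five concentrations. GI50 is the concentration that inhibits growth by half. TGI is the concentration that stops growth completely.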

The assay relates to NCI-H322M lung. Put plainly: DTP human tumour cell line panel, 48 h.
Regarding `COc1cccc(NC(=O)CC(=O)N2NC(C)C(N=Nc3cccc(C(=O)O)c3)C2=O)c1` (stereo not drawn), the TGI (commonly the concentration giving total growth inhibition) was more than 100 µM.

`CC1=CCC[C@@H]2[C@@](C)(Cc3cc(O)ccc3O)[C@H](C)CC[C@@]12C` displayed a TGI of 20.9 µM.

Regarding `CC(C)[Si](OC1=C(C(=O)N(C)c2ccccc2Cl)CCC1)(C(C)C)C(C)C`, the TGI is 32.5 µM.

In the case of `CCc1c(Cl)nc(Cl)nc1Cl`, the total growth inhibition concentration (TGI) was 3.52 µM.

On to `Cc1nc(/N=C(\N)NC(=O)Nc2ccccc2Cl)sc1C`, for which the GI50 – broadly, the concentration giving 50% growth inhibition – is 1.29 µM and the TGI is more than 100 µM.

Consider `COc1cc2c3c(n(C)c(=O)c2cc1OC)-c1cc2c(cc1/C3=C\CCCBr)OCO2`, for which the GI50 was more than 75.7 µM and the TGI was more than 100 µM.

`CCN(CC)CCNC(=O)c1cccc2cc3ccccc3nc12` came in with a TGI of 33.8 µM. This counts as double-digit micromolar.

`O=C(/C=C(\Nc1ccccc1O)c1ccccc1)C(=O)NC12CC3CC(CC(C3)C1)C2` showed a TGI of more than 10 µM.

Molecule `Cn1cc(C[C@@H](N)C(=O)O)c2ccccc21` returned a TGI of more than 100 µM.

Molecule `Cc1ccc2c(=O)c(-c3nnc(N)s3)c[nH]c2n1` came in with a TGI of more than 100 µM.

Turning to `CC1(C)CC2C=C(C=O)C3(C=O)CC3(C)C2C1` (stereo not drawn), the concentration for total growth inhibition (TGI) was determined as 25.4 µM. This lies in the double-digit micromolar range.

`CC(=O)[O-].CC(=O)[O-].[NH2-].[Pt+2].c1ccncc1`: the TGI is more than 100 µM.

Regarding `O=C1C(Cl)=C(Nc2cccc(O)c2)C(=O)N1c1ccc(Cl)c(Cl)c1`, the GI50 was 17.6 µM and the concentration for total growth inhibition (TGI) turned out to be 35.6 µM.

`O=C(O)C1CCCCN1C(=O)c1ccccc1` (stereo not drawn): the TGI is more than 100 µM.

In the case of `N#Cc1c(-c2ccccc2)cc(-c2ccccc2)n(CCCCC(=O)NO)c1=O`, the GI50 is 15.5 µM and the TGI was 38.2 µM.

For the molecule `CC1=C(/C=C/C(C)=C/C=C/C(C)=C/C(=O)Nc2ccc(O)cc2)C(C)(C)CCC1`, the GI50 is 14.7 µM; the TGI is 29.3 µM and 19.4 µM.

On to `Cc1cc(C)cc(Sc2c([N+](=O)[O-])ncn2C)c1`, for which the TGI was more than 100 µM.

Molecule `Cc1ccc2[nH]c3[nH]c(=O)[nH]c(=O)c3c2c1` had a TGI of more than 100 µM.

The molecule `Clc1ccc(OC2CCO2)cc1Cl` (stereo not drawn) showed a TGI of more than 100 µM.

For the molecule `CCOC(=O)c1cc2c([nH]1)C(=O)CC1=C2CCN1Cc1ccccc1`, the TGI is 37.5 µM.

In turn, `NC(=O)C(NC=O)c1ccccc1` (stereo not drawn) came in with a TGI of more than 100 µM.

Molecule `CC(=O)OC1CC2(c3ccccc3)C(=O)c3ccccc3N2O1` (stereo not drawn) had a TGI of more than 100 µM.

Molecule `Cc1cc2c(cc1C)[n+](=O)c(C(=O)N1CCN(c3ccc([N+](=O)[O-])cc3)CC1)c(C)n2[O-]` came in with a total growth inhibition concentration (TGI) of more than 100 µM.

The molecule `CN1CCN(C(=S)N(C(=O)c2ccco2)c2ccccc2)CC1` returned a concentration for total growth inhibition (TGI) of more than 100 µM.

For `CCOC(=O)c1c(C)n2c(=O)cc(C)c3c(OC(C)=O)c(OC(C)=O)cc1c32`, the GI50 was 8.06 µM and the TGI was more than 79.9 µM.

On to `O=C(c1cccs1)c1c(C(F)(F)F)n([O-])c2ccc(F)cc2[n+]1=O`, for which the GI50 is 1.88 µM and the TGI was found to be 4.06 µM.

Take `COc1ccc(N[C@H](CS(=O)c2ccc(C)cc2)C(F)(F)C(F)(F)F)cc1` (stereo partly drawn): the TGI was more than 100 µM.

Consider `O=C(O)C#CCO`, for which the TGI was more than 100 µM.

Consider `Cc1cc(C(=O)N2CCN(Cc3ccccc3)CC2)c(C)o1`, for which the TGI was more than 100 µM.

For the molecule `CCCN(CCCCN1C(=O)c2ccccc2C1=O)CC1COc2ccccc2O1` (stereo not drawn), the TGI is more than 100 µM.

Consider `CN(C)CCNC(=O)c1cccc2nc3cccc(F)c3nc12`, for which the concentration for total growth inhibition (TGI) is 11.8 µM.

The molecule `CC(C)N=C(NC#N)NS(=O)(=O)c1cnccc1Nc1ccc(Cl)cc1` registered a concentration for total growth inhibition (TGI) of more than 100 µM.

As for `COc1ccc(/C=C\c2cc(OC)c(OC)c(OC)c2)cc1OC(=O)c1cccc(Cn2cc(CCOC(=O)c3cccc(Cn4nnc5c4C(=O)c4ccccc4C5=O)c3)nn2)c1`, the GI50 is 0.0541 µM and the TGI is more than 100 µM.

With `CC[C@@H](C(=O)[C@@H](C)[C@@H](O)[C@H](C)[C@@H]1O[C@@H]([C@@H](CC)C(=O)O)CC[C@@H]1C)[C@H]1OC2(C=C[C@@H](O)[C@]3(CC[C@@](C)([C@H]4CC[C@](O)(CC)[C@H](C)O4)O3)O2)[C@H](C)C[C@@H]1C` (stereo partly drawn), the GI50 is 2 µM and the TGI amounted to 15.1 µM.
